# From PubChem BioAssay AID493208 (National Center for Advancing Translational Sciences (NCATS), 2011)
# About 340 (0.77%) of roughly 44,000 compounds were called active. Not shown: some 5% with an inconclusive outcome. The call rests on the fitted dose curve; in most records, active means well fitted inhibition curve with a large enough effect; inconclusive means small, poorly fitted or top-dose-only effect; inactive means flat fitted curve, though single readings scatter. This is one part of the list.
# Experiment: Acumen qHTS Assay for Inhibitors of the mTORC1 Signaling Pathway in MEF (Tsc2-/-, p53-/-) Cells: Sytravon; further: nearly all actives have a fitted effect of over 50% in size;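 on activity change, negative = inhibition: plate controls were DMSO for no effect and rapamycin for full effect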
# Details: phospho-rpS6 immunofluorescence/PI, 24 h; series mostly up to 38.3 µM; activity change, negative = inhibition: at the top concentration
# Outline: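 Readout is phospho-S6 Alexa 488 signal normalized to PI per well, reported as % active cells with thresholds set from rapamycin (7.5 nM) and DMSO controls. Cells: Tsc2-/-, p53-/- MEFs, 24 hrs compound at 37 C; PI cell number serves as viability.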
# Potency means the concentration at half of the fitted maximal effect.
Compound,"activity change, negative = inhibition",Potency
CCN(CC)S(=O)(=O)c1ccc(C(=O)N=c2sc3cccc(OC)c3n2C)cc1,inactive: -6.23%,
COc1ccc(CNc2ncnc3c2c(-c2ccccc2)cn3-c2ccccc2)cc1,inactive: -4.36%,
CN1CC(=O)N(CC(=O)Nc2ccc(Cl)c(C(F)(F)F)c2)c2ccccc2C1=O,inactive: -2.39%,
Cc1c(-c2cccc(NC(=O)C(C)(C)C)c2)nc2ncccn12,inactive: -0.112%,
Cc1ccc(-c2nc(SCc3ccc(Br)cc3)n3[nH]c(=O)cc3n2)cc1,inactive: -2.33%,
COc1ccccc1CNC(=O)c1cccc(Nc2nc3ccccc3n3nnnc23)c1,inactive: -1.79%,
Cc1ccc2nc(N3CCN(c4cccc(C)c4C)CC3)c3nnnn3c2c1,inactive: 0.346%,
CCC1CN(C(=O)N2CCC(C(=O)NCc3cccs3)CC2)c2cc(C)ccc2O1 (stereo not drawn),inactive: 9.31%,
O=C(CC1(O)C(=O)N(CCc2ccccc2)c2ccc(Br)cc21)c1ccccc1O (stereo not drawn),,active: 18.5 µM
CCOc1ccc(-c2cc(C(=O)NCc3ccccc3)c3c(-c4ccc(CC)cc4)[nH]nc3n2)cc1,inactive: -11.2%,
O=C(COc1ccc(F)cc1)Nc1ccc2nc(SCc3ccccc3)sc2c1,inactive: -12.9%,
CCc1cccc(NC(=O)CSc2ncc3c(n2)-c2ccccc2N(Cc2ccccc2C)S3(=O)=O)c1,inactive: 3.47%,
Cc1ccccc1Nc1c2c(nc3nncn13)CCC2,inactive: -9.37%,
CC(C)(C)C(=O)Nc1c(C(=O)N2CCN(c3ccc(F)cc3)CC2)oc2ccccc12,inactive: 3.28%,
COc1ccc(NC(=O)Cc2csc(C)n2)cc1,inactive: -2.88%,
Cc1cccc(-c2nc3scc(CCNC(=O)c4ccccc4Cl)n3n2)c1,inactive: -15.9%,
CCOC(=O)C1CCN(S(=O)(=O)c2cc(-c3cc(C)no3)ccc2C)CC1,inactive: 0%,
CCCCCn1c(=O)[nH]c2cc(C(=O)Nc3ccc(F)cc3)ccc2c1=O,inactive: 0%,
CC(C)c1nn2c(=O)cc(COC(=O)c3ccc(NC(=O)CCc4ccccc4)cc3)nc2s1,inactive: 8.42%,
Cc1cccc(NC(=O)CSc2nnc(CNC(=O)c3c(F)cccc3Cl)o2)c1C,inactive: -5.04%,
CC1CCN(CCNC(=O)c2ccc(Cn3c(SCc4ccccc4)nc4cccnc43)cc2)CC1,inactive: -5.88%,
Oc1c(C(c2ccc(F)cc2)N2CCCC2)sc2nc(-c3ccco3)nn12 (stereo not drawn),inactive: -1.37%,
Cc1ccc(S(=O)(=O)c2cn(C)c3cc(N4CCOCC4)c(F)cc3c2=O)c(C)c1,inactive: 3.13%,
COc1ccc(N2CCN(c3ncnc4c3nc3n4CCCCC3)CC2)cc1,inactive: 3.16%,

Compound,"activity change, negative = inhibition",Potency
Cc1ccc(CCNC(=O)C2COc3ccccc3C2)cc1 (stereo not drawn),inactive: -4.61%,
Cc1ccc(Cl)cc1-n1c(=O)c2sc3ccccc3c2n(CC(=O)NC2CCCC2)c1=O,inactive: 0.0656%,
Cc1ccc2c(c1)-c1onc(C(=O)N3CCN(c4cc(C)ccc4C)CC3)c1CO2,inactive: 5.7%,
Cc1cc(C)n(-c2nc3cc(Cl)ccc3nc2N2CCN(c3cccc(C)c3C)CC2)n1,inactive: 5.23%,
COc1ccccc1CNS(=O)(=O)c1c(C(=O)N2CCC(C)CC2)c(C)n(C)c1C,inactive: 0%,
Cc1ccc(CCNC(=O)Cn2ncc3c([nH]c4ccccc43)c2=O)cc1,inactive: 2.28%,
CCCCCN1C(C(=O)c2ccccc2)=C(NC(=O)c2ccc(OC)c(OC)c2)c2ccccc2S1(=O)=O,inactive: -2.63%,
COc1ccc(C)cc1NC(=O)CSc1nc(=O)n(Cc2cccnc2)c2c1CCC2,inactive: -10.9%,
COC(=O)c1ccccc1NC(=O)CSc1cc(-c2ccccc2)nc(C)n1,inactive: 2.42%,
Clc1ccc(-c2ccc(CNCCSc3nnnn3-c3ccccc3)o2)cc1,inactive: -4.59%,
O=C(CCn1c(=O)c2cccn2c2ccc(F)cc21)NCCc1ccc(Cl)cc1,inactive: 8.22%,
COc1ccc(NC(=O)N2CCC(CN3CCCC3)CC2)c(OC)c1,inactive: -0.207%,
O=C(C1CCCN(S(=O)(=O)c2cccc3nonc23)C1)N1CCN(c2ccccc2F)CC1 (stereo not drawn),inactive: -2.91%,
COc1ccc(C2(CNC(=O)C(=O)Nc3ccc(C)c(Cl)c3)CCCC2)cc1OC,inactive: -0.97%,
CCN(CC)S(=O)(=O)c1nnc(NC(=O)COc2ccccc2)s1,inactive: -17.2%,
CC(=O)c1ccc(N2C(=O)N(Cc3ccc(F)cc3)c3ccccc3S2(=O)=O)cc1,inactive: 1.53%,
CCN1CCN(c2oc(-c3ccc(COc4ccc(OC)cc4)o3)nc2C#N)CC1,inactive: -10.1%,
CC(C)(C)OC(=O)N1CCC(c2c(C(=O)NCCN3CCOCC3)cnn2-c2cccc(F)c2)CC1,inactive: 4.52%,
COc1ccc(OC)c(C(=O)CN2C(=O)N(c3cc(C)cc(C)c3)S(=O)(=O)c3ccccc32)c1,inactive: -0.719%,
Clc1cccc(-n2ncc3c(NCCC4=CCCCC4)ncnc32)c1,inactive: 13.1%,
COc1ccc(-c2nc(SCC(=O)NCc3nc4ccccc4n3C)n3[nH]c(=O)cc3n2)cc1,inactive: -8.26%,
CCCCN1C(=O)C(NC(=O)c2ccc(C(C)(C)C)cc2)(C(F)(F)F)C(C(=O)OC)=C1C (stereo not drawn),inactive: -18.3%,
Cc1ccc(NC(=O)CSc2nnc(C)s2)c(C)c1,inactive: 7.38%,
COc1ccc(NC(=O)C2CCN(c3nc4ccccc4[nH]3)CC2)cc1OC,inactive: 4.84%,
